# According to US20260184782A1 (TWIST BIOSCIENCE, published 2026):
# T1: TIGIT (UniProt Q495A1 22-141, limits assumed)
# T1 construct: also called T cell immunoreceptor with Ig and ITIM domains; hTIGIT
# T1 sequence (looked up): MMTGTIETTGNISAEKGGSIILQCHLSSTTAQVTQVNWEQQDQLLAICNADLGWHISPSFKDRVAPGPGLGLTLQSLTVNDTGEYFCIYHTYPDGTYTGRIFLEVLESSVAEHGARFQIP
# Legend:
# TIGIT [1] = molecular target: T1, TIGIT; assay: SPR (Carterra), VHH-Fc
# TIGIT [2] = molecular target: T1, TIGIT; assay: ELISA
Binder,Kd (TIGIT [1]) [µM],koff (TIGIT [1]) [s⁻¹],kon (TIGIT [1]) [M⁻¹ s⁻¹],ELISA (TIGIT [2])
TIGIT-31-7 (VHH-Fc) (Fc fusion) EVQLVESGGGLVQPGGSLRLSCAASGSTFSINRMGWFRQAPGKEREWVATIVHSGGHSGGTSYYADSVKGRFTISADNSKNTAYLQMNSLKPEDTAVYYCAARPYTRPGSMWVSSLYDWGQGTLVTVSSGGGGS[in this place human IgG1 Fc with C220S (EU numbers)],0.275,0.025,91000,7.9
TIGIT-31-9 (VHH-Fc) (Fc fusion) EVQLVESGGGLVQPGGSLRLSCAASGGTLSGNAMGWFRQAPGKEREWVASIYWSSGNTYYADSVKGRFTISADNSKNTAYLQMNSLKPEDTAVYYCANSNKPKFDWGQGTLVTVSSGGGGS[in this place human IgG1 Fc with C220S (EU numbers)],0.131,0.024,190000,9.7
TIGIT-31-23 (VHH-Fc) (Fc fusion) EVQLVESGGGLVQPGGSLRLSCAASGFTFSNSGMGWFRQAPGKEREWVASIYWSSGNTYYADSVKGRFTISADNSKNTAYLQMNSLKPEDTAVYYCANSNKPKFDWGQGTLVTVSSGGGGS[in this place human IgG1 Fc with C220S (EU numbers)],0.127,0.049,380000,6.6
TIGIT-31-15 (VHH-Fc) (Fc fusion) EVQLVESGGGLVQPGGSLRLSCAASGFTFSTYGMGWFRQAPGKEREFVAAISWSGVSKHYADSVKGRFTISADNSKNTAYLQMNSLKPEDTAVYYCASSPYGPLYRSTHYYDWGQGTLVTVSSGGGGS[in this place human IgG1 Fc with C220S (EU numbers)],0.088,2,2.2e+07,6.2
TIGIT-31-10 (VHH-Fc) (Fc fusion) EVQLVESGGGLVQPGGSLRLSCAASGHTFSSYGMGWFRQAPGKERELVAAISWSGISTIYADSVKGRFTISADNSKNTAYLQMNSLKPEDTAVYYCASSPYGPLYRSTHYYDWGQGTLVTVSSGGGGS[in this place human IgG1 Fc with C220S (EU numbers)],0.094,0.12,1.3e+06,12.3
TIGIT-31-27 (VHH-Fc) (Fc fusion) EVQLVESGGGLVQPGGSLRLSCAASGFTFGHYAMGWFRQAPGKEREFVAAISWSGVSTYYADSVKGRFTISADNSKNTAYLQMNSLKPEDTAVYYCASSPYGPLYRSTHYYDWGQGTLVTVSSGGGGS[in this place human IgG1 Fc with C220S (EU numbers)],0.096,96,1e+09,8.1
TIGIT-31-14 (VHH-Fc) (Fc fusion) EVQLVESGGGLVQPGGSLRLSCAASGYTFRAYVMGWFRQAPGKERELVAVINYRGSSLKYADSVKGRFTISADNSKNTAYLQMNSLKPEDTAVYYCAASEWGGSDYDHDYDWGQGTLVTVSSGGGGS[in this place human IgG1 Fc with C220S (EU numbers)],0.114,0.011,100000,5.8
TIGIT-31-19 (VHH-Fc) (Fc fusion) EVQLVESGGGLVQPGGSLRLSCAASGRTFGNYAMGWFRQAPGKEREFVADIRSSAGRTYYADSVKGRFTISADNSKNTAYLQMNSLKPEDTAVYYCAASEWGGSDYDHDYDWGQGTLVTVSSGGGGS[in this place human IgG1 Fc with C220S (EU numbers)],0.125,130,1e+09,6.7
TIGIT-31-22 (VHH-Fc) (Fc fusion) EVQLVESGGGLVQPGGSLRLSCAASGRTFSTHAMGWFRQAPGKEREFVAAITPINWGGRGTHYADSVKGRFTISADNSKNTAYLQMNSLKPEDNAVYYCAAKRLRSGRWTWGQGTLVTVSSGGGGS[in this place human IgG1 Fc with C220S (EU numbers)],4.62,0.00028,–,7.4
